# Experimental data from the supplement of paper PMC8728848.
# Some of the results follow.
# How the values were obtained:
# Experiment in all cases: glycan array binding signal (z-score within array); higher = stronger binding
# Settings in all cases: glycan notation: IUPAC condensed, linker removed
# [1] = target: Gal(a1-3)[Gal(a1-4)]Gal(b1-4)GlcNAc
# Outline: (§1)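 The binding signal is a Z-score computed within each array and averaged over linkers. Arrays of the same protein sequence at different concentrations or buffers were also averaged together. Data originate from 3228 arrays in the Consortium for Functional Glycomics database, kept only where the protein sequence was available.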
# [2] = target: Gal(a1-4)Gal(b1-3)GlcNAc(b1-2)Man(a1-3)[Gal(a1-4)Gal(b1-3)GlcNAc(b1-2)Man(a1-6)]Man(b1-4)GlcNAc(b1-4)GlcNAc
# Outline: as §1
# [3] = target: Gal(a1-4)Gal(b1-4)Glc
# Outline: as §1
# [4] = target: Gal(a1-4)Gal(b1-4)GlcNAc
# Outline: as §1
# [5] = target: Gal(a1-4)Gal(b1-4)GlcNAc(b1-2)Man(a1-3)[Gal(a1-4)Gal(b1-4)GlcNAc(b1-2)Man(a1-6)]Man(b1-4)GlcNAc(b1-4)GlcNAc
# Outline: as §1
# [6] = target: Gal(a1-4)Gal(b1-4)GlcNAc(b1-3)Gal(b1-4)Glc
# Outline: as §1
# [7] = target: Gal(a1-4)GlcNAc
# Outline: as §1
# [8] = target: Gal(a1-6)Glc
# Outline: as §1
# [9] = target: Gal(b1-2)Gal
# Outline: as §1
# [10] = target: Gal(b1-3)Gal
# Outline: as §1
# [11] = target: Gal(b1-3)Gal(b1-4)GlcNAc
# Outline: as §1
# [12] = target: Gal(b1-3)GalNAc
# Outline: as §1
# [13] = target: Gal(b1-3)GalNAc(a1-3)[Fuc(a1-2)]Gal(b1-4)Glc
# Outline: as §1
# [14] = target: Gal(b1-3)GalNAc(a1-3)[Fuc(a1-2)]Gal(b1-4)GlcNAc
# Outline: as §1
# [15] = target: Gal(b1-3)GalNAc(b1-3)Gal
# Outline: as §1
# [16] = target: Gal(b1-3)GalNAc(b1-3)Gal(a1-4)Gal(b1-4)Glc
# Outline: as §1
# [17] = target: Gal(b1-3)GalNAc(b1-4)Gal(b1-4)Glc
# Outline: as §1
# [18] = target: Gal(b1-3)GalNAc(b1-4)[Neu5Ac(a2-3)]Gal(b1-4)Glc
# Outline: as §1
# [19] = target: Gal(b1-3)GlcNAc
# Outline: as §1
# [20] = target: Gal(b1-3)GlcNAc(a1-3)Gal(b1-4)GlcNAc
# Outline: as §1
# [21] = target: Gal(b1-3)GlcNAc(a1-6)Gal(b1-4)GlcNAc
# Outline: as §1
# [22] = target: Gal(b1-3)GlcNAc(b1-2)Man
# Outline: as §1
# [23] = target: Gal(b1-3)GlcNAc(b1-2)Man(a1-3)[Gal(b1-3)GlcNAc(b1-2)Man(a1-6)]Man(b1-4)GlcNAc(b1-4)GlcNAc
# Outline: as §1
# [24] = target: Gal(b1-3)GlcNAc(b1-2)Man(a1-3)[Gal(b1-3)GlcNAc(b1-2)Man(a1-6)]Man(b1-4)GlcNAc(b1-4)[Fuc(a1-6)]GlcNAc
# Outline: as §1
# [25] = target: Gal(b1-3)GlcNAc(b1-2)Man(a1-3)[GlcNAc(b1-4)][Gal(b1-3)GlcNAc(b1-2)Man(a1-6)]Man(b1-4)GlcNAc(b1-4)GlcNAc
# Outline: as §1
# [26] = target: Gal(b1-3)GlcNAc(b1-2)[Gal(b1-3)GlcNAc(b1-6)]Man(a1-6)[Gal(b1-3)GlcNAc(b1-2)Man(a1-3)]Man(b1-4)GlcNAc(b1-4)GlcNAc
# Outline: as §1
# [27] = target: Gal(b1-3)GlcNAc(b1-3)Gal(b1-3)GlcNAc
# Outline: as §1
# [28] = target: Gal(b1-3)GlcNAc(b1-3)Gal(b1-4)Glc
# Outline: as §1
# [29] = target: Gal(b1-3)GlcNAc(b1-3)Gal(b1-4)GlcNAc
# Outline: as §1
# [30] = target: Gal(b1-3)GlcNAc(b1-3)Gal(b1-4)GlcNAc(b1-2)Man(a1-3)[Gal(b1-3)GlcNAc(b1-3)Gal(b1-4)GlcNAc(b1-2)Man(a1-6)]Man(b1-4)GlcNAc(b1-4)GlcNAc
# Outline: as §1
# [31] = target: Gal(b1-3)GlcNAc(b1-3)Gal(b1-4)GlcNAc(b1-2)[Gal(b1-3)GlcNAc(b1-3)Gal(b1-4)GlcNAc(b1-6)]Man(a1-6)[Gal(b1-3)GlcNAc(b1-3)Gal(b1-4)GlcNAc(b1-2)Man(a1-3)]Man(b1-4)GlcNAc(b1-4)[Fuc(a1-6)]GlcNAc
# Outline: as §1
# [32] = target: Gal(b1-3)GlcNAc(b1-3)Gal(b1-4)GlcNAc(b1-3)Gal(b1-4)GlcNAc(b1-2)[Gal(b1-3)GlcNAc(b1-3)Gal(b1-4)GlcNAc(b1-3)Gal(b1-4)GlcNAc(b1-6)]Man(a1-6)[Gal(b1-3)GlcNAc(b1-3)Gal(b1-4)GlcNAc(b1-3)Gal(b1-4)GlcNAc(b1-2)Man(a1-3)]Man(b1-4)GlcNAc(b1-4)[Fuc(a1-6)]GlcNAc
# Outline: as §1
# [33] = target: Gal(b1-3)GlcNAc(b1-3)Gal(b1-4)GlcNAc(b1-6)[Gal(b1-3)GlcNAc(b1-3)]Gal(b1-4)Glc
# Outline: as §1
# [34] = target: Gal(b1-3)GlcNAc(b1-3)Gal(b1-4)[Fuc(a1-3)]GlcNAc
# Outline: as §1
# [35] = target: Gal(b1-3)GlcNAc(b1-3)Gal(b1-4)[Fuc(a1-3)]GlcNAc(b1-6)[Gal(b1-3)GlcNAc(b1-3)]Gal(b1-4)Glc
# Outline: as §1
# [36] = target: Gal(b1-3)GlcNAc(b1-3)GalNAc
# Outline: as §1
# [37] = target: Gal(b1-3)GlcNAc(b1-6)Gal(b1-4)GlcNAc
# Outline: as §1
# [38] = target: Gal(b1-3)GlcNAc(b1-6)GalNAc
# Outline: as §1
binder,measurement,setting,value
OGAA (protein) MVQKESQATLEERESELSSNPAASAGASLEPPAAPAPGEDNPAGAGGAAVAGAAGGARRFLCGVVEGFYGRPWVMEQRKELFRRLQKWELNTYLYAPKDDYKHRMFWREMYSVEEAEQLMTLISAAREYEIEFIYAISPGLDITFSNPKEVSTLKRKLDQVSQFGCRSFALLFADIDHNMCAADKEVFSSFAHAQVSITNEIYQYLGEPETFLFCPTEYCGTFCYPNVSQSPYLRTVGEKLLPGIEVLWTGPKVVSKEIPVESIEEVSKIIKRAPVIWDNIHANDYDQKRLFLGPYKGRSTELIPRLKGVLTNPNCEFEANYVAIHTLATWYKSNMNGVRKDVVMTDSEDSTVSIQIKLENEGSDEDIETDVLYSPQMALKLALTEWLQEFGVPHQY,glycan array binding signal (z-score),[1],-0.087
same,glycan array binding signal (z-score),[2],-0.007
same,glycan array binding signal (z-score),[3],-0.062
same,glycan array binding signal (z-score),[4],-0.077
same,glycan array binding signal (z-score),[5],-0.095
same,glycan array binding signal (z-score),[6],-0.098
same,glycan array binding signal (z-score),[7],-0.078
same,glycan array binding signal (z-score),[8],-0.015
same,glycan array binding signal (z-score),[9],-0.04
same,glycan array binding signal (z-score),[10],-0.099
same,glycan array binding signal (z-score),[11],-0.067
same,glycan array binding signal (z-score),[12],-0.085
same,glycan array binding signal (z-score),[13],-0.068
same,glycan array binding signal (z-score),[14],-0.126
same,glycan array binding signal (z-score),[15],-0.119
same,glycan array binding signal (z-score),[16],-0.077
same,glycan array binding signal (z-score),[17],-0.032
same,glycan array binding signal (z-score),[18],-0.101
same,glycan array binding signal (z-score),[19],-0.061
same,glycan array binding signal (z-score),[20],-0.05
same,glycan array binding signal (z-score),[21],-0.118
same,glycan array binding signal (z-score),[22],-0.105
same,glycan array binding signal (z-score),[23],-0.07
same,glycan array binding signal (z-score),[24],0.031
same,glycan array binding signal (z-score),[25],-0.026
same,glycan array binding signal (z-score),[26],-0.044
same,glycan array binding signal (z-score),[27],-0.103
same,glycan array binding signal (z-score),[28],-0.008
same,glycan array binding signal (z-score),[29],-0.072
same,glycan array binding signal (z-score),[30],-0.086
same,glycan array binding signal (z-score),[31],0.027
same,glycan array binding signal (z-score),[32],0.078
same,glycan array binding signal (z-score),[33],-0.062
same,glycan array binding signal (z-score),[34],-0.103
same,glycan array binding signal (z-score),[35],-0.06
same,glycan array binding signal (z-score),[36],-0.12
same,glycan array binding signal (z-score),[37],-0.127
same,glycan array binding signal (z-score),[38],-0.082
